About 17,000 (4.4%) of roughly 390,000 compounds were called active. The shares of active, inactive and inconclusive entries below differ from those in the screen. The call rests on the fitted dose curve; in most records, active means well fitted inhibition curve with a large enough effect; inconclusive means small, poorly fitted or top-dose-only effect; inactive means no such curve, though single readings can be large or run the other way. A potency beside an inconclusive call is a rough fit, not a confirmed value.
molecular target: Lysine-specific demethylase 4A (Homo sapiens) (UniProt O75164); assay: qHTS Assay for Inhibitors of JMJD2A-Tudor Domain; conditions: AlphaScreen JMJD2A-Tudor / H3K4me3 peptide binding; activity change, negative = inhibition: at 114 µM (top of the series); further: nearly all actives have a fitted effect of over 50% in size
On the % scale 0 is the no-effect control and ±100 the full control effect; potency means the concentration at half of the fitted maximal effect; tags describe the fitted curve by direction and shape.

UniProt O75164, sequence (O75164 whole entry, looked up, the tested form may be a part): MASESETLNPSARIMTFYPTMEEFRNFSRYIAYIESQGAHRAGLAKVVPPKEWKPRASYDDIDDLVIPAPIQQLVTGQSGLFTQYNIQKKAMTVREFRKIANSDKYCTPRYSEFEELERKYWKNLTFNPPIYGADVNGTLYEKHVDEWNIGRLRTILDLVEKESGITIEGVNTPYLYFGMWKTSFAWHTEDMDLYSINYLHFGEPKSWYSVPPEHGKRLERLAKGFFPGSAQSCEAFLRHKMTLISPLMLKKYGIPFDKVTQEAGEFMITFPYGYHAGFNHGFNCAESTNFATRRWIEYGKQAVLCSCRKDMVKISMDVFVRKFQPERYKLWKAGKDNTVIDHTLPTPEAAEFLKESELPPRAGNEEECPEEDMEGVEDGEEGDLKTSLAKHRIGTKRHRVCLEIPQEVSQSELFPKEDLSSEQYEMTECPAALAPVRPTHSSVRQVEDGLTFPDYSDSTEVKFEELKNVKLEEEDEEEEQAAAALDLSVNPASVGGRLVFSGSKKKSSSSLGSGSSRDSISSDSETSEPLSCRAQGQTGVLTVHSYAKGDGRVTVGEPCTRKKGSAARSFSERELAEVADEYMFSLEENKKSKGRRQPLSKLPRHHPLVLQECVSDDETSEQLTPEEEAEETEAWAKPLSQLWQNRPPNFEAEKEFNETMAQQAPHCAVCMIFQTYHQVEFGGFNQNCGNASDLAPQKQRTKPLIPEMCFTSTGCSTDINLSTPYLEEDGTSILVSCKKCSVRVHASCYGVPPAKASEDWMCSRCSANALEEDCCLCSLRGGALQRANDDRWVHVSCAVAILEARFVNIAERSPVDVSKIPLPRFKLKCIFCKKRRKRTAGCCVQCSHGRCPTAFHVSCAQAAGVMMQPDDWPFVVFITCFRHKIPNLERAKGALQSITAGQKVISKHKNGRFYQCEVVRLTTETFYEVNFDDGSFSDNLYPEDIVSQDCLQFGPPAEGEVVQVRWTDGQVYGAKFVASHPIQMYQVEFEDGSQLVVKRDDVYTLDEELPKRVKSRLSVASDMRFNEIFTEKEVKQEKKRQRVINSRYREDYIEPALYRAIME

Potency, active:
COc1ccc(C2Nc3ccccc3C(=O)N2Cc2ccccn2)cc1COc1ccc(NC(C)=O)cc1 (centres undefined) 56.2 µM
O=c1cc2c(=O)oc3cc(O)c(O)oc3c2c(O)c1O 1.41 µM
CCOC(=O)c1nn(-c2ccccc2C)c(=O)c2c(N)scc12 17.8 µM
C#CCOCCOCCOCCNc1nc(N2CCN(C(=O)[C@H](CCCCN)n3cc(CN)nn3)CC2)nc(N2CCN(C(=O)[C@H](CCCCN)n3cc(CN)nn3)CC2)n1 79.4 µM
CCOc1ccc(CCNC(=O)c2nc(-c3cccc(F)c3)n3c2CCCCC3)cc1OCC 50.1 µM
COc1ccc(CNCC(O)COCc2cccs2)cc1 (centres undefined) 1.58 µM
S=c1nn[nH]n1C12CC3CC(CC(C3)C1)C2 50.1 µM
CN1CCc2c1nc1ccccc1c2N=C1CCCN1Cc1ccccc1 44.7 µM
O=C1ON=C(c2ccccc2)/C1=C/c1ccc(O)c(O)c1 14.1 µM
CCNC(=S)NNC(=O)CSc1nc2ccccc2n1C 89.1 µM
CCCC(CCC)=NNc1ccc(S(=O)(=O)Nc2ccccc2OC)cc1[N+](=O)[O-] 14.1 µM
COc1ccc(NC(C)C(=O)Nc2cc(C(F)(F)F)ccc2N2CCOCC2)c(OC)c1 (centres undefined) 44.7 µM
Cc1cccc(Nc2nc(N)nc(CN3CCN(c4ccc(F)cc4)CC3)n2)c1 56.2 µM

Potency, inconclusive:
C=CCNC(=S)NNc1nc2c(c(=O)[nH]1)C1(CCCCC1)Cc1ccccc1-2 50.1 µM [inhibitor, partial curve]
COc1ccccc1N1C(=O)c2ccc(C(=O)Nc3nccs3)cc2C1=O 3.98 µM [inhibitor, single point]
Cc1cccn2c(Nc3ccccc3)c(-c3cccs3)nc12 56.2 µM [inhibitor, partial curve]
CC(C)N(C(=O)[C@H]1C[C@H](CC(=O)NCCCn2ccnc2)C(=O)N2CCc3c([nH]c4cc(-c5ccco5)ccc34)[C@]12C)C(C)C 31.6 µM [inhibitor, partial curve]
Cc1[nH]c2ccccc2c1C(c1ccccc1)c1ccc(Cl)s1 (centres undefined) 44.7 µM [inhibitor, partial curve, poor fit]
CCc1cc[n+](C(C(=S)Nc2cccc(C)c2)=C([O-])c2ccc(C)c([N+](=O)[O-])c2)cc1 44.7 µM [inhibitor, partial curve]
O=C(Nc1cccc(S(=O)(=O)N2CCOCC2)c1)c1ccc(N2CCOCC2)c([N+](=O)[O-])c1 70.8 µM [inhibitor, single point]
CCOc1ccc(NC(=O)CSc2nnc3c(n2)[nH]c2ccc(S(=O)(=O)N(C)C)cc23)cc1 56.2 µM [inhibitor, partial curve]
O=C(COc1ccc(Cl)cc1Cl)NNC(=S)NCc1ccco1 56.2 µM [inhibitor, partial curve]
CC1Cc2ccccc2N1CC(=O)Nc1ccc2c(c1)OCO2 (centres undefined) 44.7 µM [inhibitor, partial curve]
Cc1ccc2scc(N3CCC(C)CC3)c(=O)c2c1 44.7 µM [inhibitor, partial curve]
C#CCOCCOCCOCCNc1nc(N2CCN(C(=O)[C@H](CCCCN)n3cc([C@@H](N)C(C)CC)nn3)CC2)nc(N2CCN(C(=O)[C@H](CCCCN)n3cc([C@@H](N)CC(C)C)nn3)CC2)n1 (some centres undefined) 70.8 µM [inhibitor, partial curve]
COc1ccc2oc(C(=O)Nc3ccc(N4CCOCC4)cc3)c(C)c2c1 22.4 µM [inhibitor, full curve]
Cc1ccc(/C=C2\SC(N3CCN(C(c4ccccc4)c4ccccc4)CC3)=NC2=O)o1 25.1 µM [inhibitor, full curve]
CCN1CCN(S(=O)(=O)c2ccc(Cl)c(C(=O)N(CCc3ccccc3)Cc3ccccc3)c2)CC1 50.1 µM [inhibitor, partial curve]
COC(=O)c1ccccc1NC(=O)C1CCCN(c2nnc(-n3cccc3)s2)C1 (centres undefined) 56.2 µM [inhibitor, partial curve]
CCOC(=O)c1c(S(=O)(=O)NCC(=O)Nc2ccc(C)c(N(C)C)c2)c(C)n(C)c1C 89.1 µM [inhibitor, single point]
COc1ccc(N2CCN(C(=O)c3ccc(C)c(Cl)c3)CC2)cc1 11.2 µM [inhibitor, full curve]
Cc1ccc(C(=O)N2Cc3ccccc3CC2C(=O)O)cc1 (centres undefined) 89.1 µM [inhibitor, single point]
CCN(CC)CCN(Cc1cc2cc(C)cc(C)c2[nH]c1=O)C(=S)NCc1ccco1 79.4 µM [inhibitor, partial curve]
Cn1c(=O)c2c(SCC(=O)NCc3ccco3)nc(-c3cccc(F)c3)nc2n(C)c1=O 2.82 µM [inhibitor, full curve, poor fit]
Cc1sc2nc(CSc3ccccc3)nc(N3CCN(C)CC3)c2c1C 63.1 µM [inhibitor, partial curve, poor fit]
O=C(CC1Nc2cccc3cccc(c23)NC1=O)Nc1ccccc1 (centres undefined) 39.8 µM [inhibitor, partial curve]
CN(CCOc1ccccc1)CC(=O)Nc1ccc([N+](=O)[O-])cc1Cl 89.1 µM [inhibitor, single point]
Cc1cccc(N(C)S(=O)(=O)c2c(C)[nH]c(C)c2C(=O)N2CCCC2)c1 15.8 µM [inhibitor, single point]
CCOc1ccc(N(CC(=O)NC2CC2)S(=O)(=O)c2ccc(C)cc2)cc1 1.26 µM [inhibitor, full curve]
Cc1cc(O)c(C(=O)/C=C/c2ccccc2O)c(=O)o1 35.5 µM [inhibitor, partial curve]
Cc1cc(OC(=O)c2cc(C(F)(F)F)cc(C(F)(F)F)c2)c([N+](=O)[O-])c(=O)[nH]1 100 µM [inhibitor, single point]
O=C1CCC[C@@H]2C[C@@]3(C[C@@H]4CCN1[C@H]24)Nc1cc([N+](=O)[O-])ccc1NC3=NC1CCCCC1 44.7 µM [inhibitor, partial curve]
CCN(C(=O)CSc1nnc(-c2cc(OC)c(OC)c(OC)c2)o1)c1ccccc1 79.4 µM [inhibitor, partial curve]
CCN(CC(=O)Nc1ccc2c(c1)OCCO2)CC(=O)Nc1ccc(C)c([N+](=O)[O-])c1 56.2 µM [inhibitor, partial curve]
CCCCN1C2=C(C(=O)CC(C)(C)C2)C(c2ccccc2)C2=C1c1ccccc1C2=O (centres undefined) 12.6 µM [inhibitor, full curve]
COCCn1c(SCc2cccc([N+](=O)[O-])c2)nc2ccccc2c1=O 56.2 µM [inhibitor, partial curve]
Cc1cccc(Nc2ncc(NC(=O)c3cccc(F)c3)c(Nc3cccc(C)c3)n2)c1 1 µM [inhibitor, full curve, poor fit]
CCOC(=O)c1c(-c2ccco2)csc1N 39.8 µM [inhibitor, partial curve]

Activity change, negative = inhibition, inactive:
CC(=O)N1Cc2ccccc2CC1C(=O)N1CCN(c2ccccc2)CC1 (centres undefined) -9.97%
CC(C)(C)C1CCc2onc(C(=O)Nc3sc4c(c3C(N)=O)CCCC4)c2C1 (centres undefined) -24.6%
COC(=O)[C@]1(Cc2ccccc2)N[C@H](CN(C)C(=O)Nc2ccc(OC)cc2)[C@@H]2C(=O)N(Cc3ccccc3)C(=O)[C@@H]21 -35.3%
O=C(OC1CCOC1=O)c1ccc2ncsc2c1 (centres undefined) -3.22%
CC(NC(=O)COC(=O)/C=C/c1cccc(C(F)(F)F)c1)c1ccccc1 (centres undefined) -3.26%
Cc1ccc([N+](=O)[O-])cc1S(=O)(=O)Nc1cccc(S(=O)(=O)Nc2ccccc2C(=O)O)c1 -20.1%
COc1cc(OC)c(OC)cc1CNC(=O)c1cc(S(=O)(=O)N2CCOCC2)ccc1F -17%
CCc1ccc(OCC(=O)N(Cc2ccccc2)C2CCS(=O)(=O)C2)cc1 (centres undefined) -8.83%
O=[N+]([O-])c1ccc2c(c1)ncn2-c1ccccc1 -8.92%
COc1cccc(C(=O)N2CCN(C(=O)c3cccc4ccccc34)CC2)c1OC 5.66%
CC(C)(C)c1csc(NC(=O)Cn2c(=O)oc3ccccc32)n1 6.22%
COc1ccc(C(=O)NCCN=C2NS(=O)(=O)c3ccccc32)cc1 3.87%
O=C(c1ccc2nc(Cc3ccccc3F)oc2c1)N1CCCC1 -18.6%
Cc1nc2ccccc2c2c1C(=O)N(C(C)C)C2=O -29.2%
N#Cc1c(-c2ccc(C(F)(F)F)cc2)cc(-c2ccccc2)[nH]c1=S -17.7%
CCOc1cc(C(=O)Nc2cccc(OCC(=O)N3CCOCC3)c2)cc(OCC)c1OCC -8.57%
CCCn1c(N)c(C(=O)COC(=O)CCNS(=O)(=O)c2ccccc2F)c(=O)[nH]c1=O -2.05%
CCC(CC)C(=O)Nc1ccc2nc(SCc3ccccc3)sc2c1 11.3%
CCn1c(SCC(=O)NCC2CCCO2)nnc1-c1ccccc1OC (centres undefined) -5.52%
CC(=O)Nc1c(-c2cc(=O)oc3cc(C)ccc23)oc2ccccc12 -3.56%

Activity change, negative = inhibition, inconclusive:
CCc1ccc(OCC(=O)NNC(=O)Cc2ccc(S(=O)(=O)N3CCOCC3)s2)cc1 -39.3% [inhibitor]

From PubChem BioAssay AID504339 (National Center for Advancing Translational Sciences (NCATS), 2011)
